In PubChem BioAssay AID463173 (ICCB-Longwood Screening Facility, Harvard Medical School, 2010) one finds survival data, which are given here for 57 compounds.

Each structure is given as a SMILES string. The whole screen tested about 52,000 compounds, of which about 1,700 (3.3%) were called active. Cut-off read from the data, not from the text of the source: active = survival mostly below about 52% (no sharp cut-off); inactive = mostly above about 56%. This is one part of the list.

The test has as its system Wild type. The experiment in a line: S. aureus survival, RN4220 and DeltatarO strains – OD600, teichoic acid synthesis inhibitors, primary screen (AID 463173). To be noted: S. aureus RN4220 wild type/DeltatarO growth, OD600, 18 h, stronger effect = lower value, screened at 18.75 µg/mL (by protocol).
Take `CC(=O)N1CCc2cc(CNS(=O)(=O)c3ccc(Cl)s3)ccc21`: the survival is inactive: 65%.
The figure for `COc1ccc(-n2c(=O)c3c4c(sc3n3c(SCCC(C)C)nnc23)COC(C(C)C)C4)cc1` (configuration not stated) is inactive: 68%; for `COc1cc(OC)cc(C(=O)Nc2ccc3oc(-c4cccc5c(Br)cccc45)nc3c2)c1` it is inactive: 78%; for `CN1C(=O)C2(SCC(=O)N2c2ccc(F)cc2)c2ccccc21` (configuration not stated) it is inactive: 92%.
To `CCOc1ccc(OCC)c(NS(=O)(=O)c2cc(-c3onc(C)c3C)ccc2OC)c1` belongs inactive: 51%.
The figure for `CCN1CCN(CCCNC(=O)c2ccc3nc(Cc4ccccc4)oc3c2)CC1` is inactive: 79%; for `CCOc1ccc(N2C(=O)CC(N(CCc3ccccc3)C(C)=O)C2=O)cc1` (configuration not stated) it is inactive: 95%.
As for `O=C(CCSc1nc(-c2ccco2)cc(C(F)(F)F)n1)N1CCCC1`, the survival was inactive: 109%.
The figure for `O=C(CO)N/N=C\c1c(F)cccc1Cl` is inactive: 124%.
To `COc1ccc(N2CCN(C(=O)c3cc(S(=O)(=O)N4CCC(C)CC4)cn3C)CC2)cc1` belongs inactive: 63%; to `Cc1cccc(N2CCN(c3nc4ccc(C)cc4n4cnnc34)CC2C)c1` (configuration not stated), inactive: 81%.
To `COc1ccc(-n2ccnc(NCc3ccc(C)cc3)c2=O)cc1OC` belongs inactive: 87%; to `O=C(NCC(c1ccc2c(c1)OCO2)N1CCOCC1)c1c(F)cccc1F` (configuration not stated), inactive: 69%.
Take `CCN(C(=O)C1CCN(c2ncnc3c2nc2n3CCCCC2)CC1)c1cccc(Cl)c1`: the survival was inactive: 63%.
To `Cc1cccc(NC(=O)CCNS(=O)(=O)c2cccc3nsnc23)c1C` belongs inactive: 67%; to `COc1ccc(N(CC(=O)N2CCN(c3ccccc3F)CC2)S(=O)(=O)c2c(C)n[nH]c2C)cc1`, inactive: 124%.
To `CCOc1ccccc1N(CC)C(=O)c1noc2c1COc1ccc(C)cc1-2` belongs inactive: 86%.
As for `CC1(C)Cc2ccccc2/C(=C/C(=O)N2CCCCCC2)N1`, the survival is inactive: 117%.
Regarding `CCn1cc(C(=O)NCCc2ccc(Cl)cc2)c(=O)c2cc(S(=O)(=O)N3CCC(C)CC3)ccc21`, the survival is inactive: 97%.
For `O=C(NC1CCCCC1)c1ccc2c(c1)N(Cc1ccc(Cl)cc1)C(=O)c1ccccc1S2=O` (configuration not stated), the survival is inactive: 82%.
Regarding `O=C(c1ccc(F)cc1)n1nc(-c2ccccc2)nc1NCc1ccco1`, the survival was active: 9%.
To `Cc1ccc(C)c(Cn2c(=O)cc(C)c3c(C)nn(C)c32)c1` belongs inactive: 63%.
The figure for `COc1ccc(NC(=O)/C=C\C(=O)N(c2ccc(C(C)C)cc2)C(C(=O)NCc2ccco2)c2ccc(F)cc2)cc1` (configuration not stated) is inactive: 59%; for `O=C(c1ccccc1)N(Cc1ccco1)Cc1cccs1` it is inactive: 82%.
`Cc1cccc(C(=O)Nc2ccc(C(=O)OCc3cc(=O)n4nc(CC(C)C)sc4n3)cc2)c1`: the survival is inactive: 71%.
For the compound `CCn1c(C)c(C)c2cc(C(=O)NCc3cccc(C)c3)ccc21`, the survival is inactive: 74%.
The figure for `COc1ccc(OCC(=O)N2CCN(C(=O)c3cccc(OC)c3)CC2)cc1` is inactive: 88%; for `CCc1ccccc1NC(=O)CCS(=O)(=O)c1cccc2nonc12` it is inactive: 78%; for `COc1cccc(CNC(=O)CCc2c(C)c3cc4c(C)coc4c(C)c3oc2=O)c1` it is inactive: 75%.
To `CC1CCCN(S(=O)(=O)c2ccc(NC(=O)CSc3nc4ccccc4o3)cc2)C1` (configuration not stated) belongs inactive: 113%; to `Cc1ccc(-n2ncc3c(N4CCN(C)CC4)ncnc32)cc1C`, inactive: 71%.
Turning to `COc1ccccc1NC(=O)c1sc2nc(C)c(C(=O)Nc3ccc(C)cc3C)c(-c3ccc(C)o3)c2c1N`, the survival is inactive: 74%.
With `CC(=O)Nc1ccccc1N1CCCCC1`, the survival is inactive: 90%.
For `O=C(CN(C(=O)Cn1nnc(-c2cccs2)n1)C1CCCC1)NCc1ccccc1`, the survival was inactive: 112%.
The figure for `CCC(C)NC(=O)c1nc2c(nnn2Cc2ccccc2Cl)c(=O)[nH]1` (configuration not stated) is inactive: 122%; for `Cc1cccc(NC(=O)Cc2csc(COc3cccc(C)c3)n2)c1` it is inactive: 89%.
As to `Cc1cc(C)cc(NC(=O)CCc2c(C)nc3c4cccnc4nn3c2C)c1`, the survival was inactive: 93%.
For `CCOC(=O)Cn1c(=O)n(C2CCCCC2)c2nc(-c3cccc(OC)c3)nc(C(N)=O)c21`, the survival is inactive: 81%.
To `Cc1cccc(C(=O)NCC(=O)OCc2cc(=O)n3nc(C4CC4)sc3n2)c1` belongs inactive: 97%; to `Cc1c2cnn(-c3ccccc3)c(=O)c2c(C)n1CC(=O)NCc1ccccc1`, inactive: 85%; to `Cc1cccc(-n2c(SCC(=O)c3ccccc3)nnc2-c2ccc(Br)cc2)c1`, inactive: 74%.
To `Cc1ccc(Cl)cc1NS(=O)(=O)c1cc2c3c(c1)CC(=O)N3CCC2` belongs inactive: 79%.
Take `CCCNC(=O)N1CCN(S(=O)(=O)c2ccc3c(ccn3C)c2)CC1`: the survival was inactive: 77%.
The figure for `COc1cc2c(c(OC)c1)C(c1cc(OC)c(OC)c(OC)c1)CC(=O)N2` (configuration not stated) is inactive: 77%; for `CCc1nn2c(=O)c(S(=O)(=O)Nc3cccc(F)c3)c(C)nc2s1` it is inactive: 84%; for `CCOc1ccc(S(=O)(=O)Nc2ccc(-c3ccc(OC)nn3)cc2)cc1` it is inactive: 105%.
The figure for `CCC(Sc1nc2nccnc2c(=O)n1Cc1ccc(C)cc1)C(=O)NC1CCCCC1` (configuration not stated) is inactive: 65%; for `CC1(C)CC2CC(C)(CN2C(=O)c2cccs2)C1` (configuration not stated) it is inactive: 115%.
Consider `COc1ccccc1N1CCN(C(=O)c2cc3ccc4ccc(C)[nH]c4c3n2)CC1`, for which the survival is inactive: 71%.
The figure for `CCOc1ccc(-c2cc3nc(C4CCN(C(=O)OC(C)(C)C)CC4)c(C(=O)Nc4ccc(C)cc4C)cn3n2)cc1` is inactive: 78%; for `O=C(CC1SC(=NC2CCCCC2)NC1=O)Nc1ccccc1` (configuration not stated) it is inactive: 96%.
To `CCOC(=O)C1CCCN(S(=O)(=O)c2csc(C(N)=O)c2)C1` (configuration not stated) belongs inactive: 87%; to `Cc1ccc(CNC(=O)Cn2c(=O)n(-c3cccc(Cl)c3)c(=O)c3sc4ccccc4c32)cc1`, inactive: 81%; to `O=C(c1ccc(CS(=O)c2ccccc2Cl)o1)N1CCN(c2cccc(Cl)c2)CC1` (configuration not stated), inactive: 44%.
To `CC(CNC(=O)CCCn1c(=O)c2cccn2c2cccnc21)c1ccccc1` (configuration not stated) belongs inactive: 96%; to `Cc1ccccc1Nc1c(-c2ccncc2)nc2ccc(Cl)cn12`, inactive: 128%.
Regarding `COc1cccc(CNC(=O)c2ccc(NC(=O)N3CC(C)Sc4ccccc43)cc2)c1` (configuration not stated), the survival is inactive: 80%.
